Measured values as given in the supplement of paper PMC8728848.
Some of the results follow.

Experiments:
Assay in all cases: glycan array binding signal (z-score within array); higher = stronger binding
Conditions in all cases: glycan notation: IUPAC condensed, linker removed
[1] = target: Fuc(a1-3)[Gal(b1-4)]GlcNAc(b1-4)Gal(b1-4)[Fuc(a1-3)]GlcNAc
Outline: (§1)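 Negative Z-scores can be read as non-binding. The Z-score is calculated within each array and then averaged across arrays of one protein sequence at different concentrations or buffers and across linkers. Arrays, 3228 in all, were curated from the Consortium for Functional Glycomics database and kept only where the protein sequence was available.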

[2] = target: Fuc(a1-3)[Gal(b1-4)]GlcNAc(b1-4)Gal(b1-4)[Fuc(a1-3)]GlcNAc(b1-4)Gal(b1-4)[Fuc(a1-3)]GlcNAc
Outline: as §1

[3] = target: Fuc(a1-3)[Gal(b1-4)]GlcNAc(b1-6)GalNAc
Outline: as §1

[4] = target: Fuc(a1-3)[Gal(b1-4)]GlcNAc(b1-6)[Gal(b1-3)GlcNAc(b1-3)]Gal(b1-4)Glc
Outline: as §1

[5] = target: Fuc(a1-3)[Gal(b1-4)]GlcNAc(b1-6)[Neu5Ac(a2-3)Gal(b1-3)]GalNAc
Outline: as §1

[6] = target: Fuc(a1-3)[Gal(b1-4)]GlcNAc6S
Outline: as §1

[7] = target: Fuc(a1-3)[Gal3S(b1-4)]GlcNAc
Outline: as §1

[8] = target: Fuc(a1-3)[Gal3S(b1-4)]GlcNAc6S
Outline: as §1

[9] = target: Fuc(a1-3)[GalNAc(b1-4)]GlcNAc
Outline: as §1

[10] = target: Fuc(a1-3)[GalNAc(b1-4)]GlcNAc6S
Outline: as §1

[11] = target: Fuc(a1-3)[GalNAc3S(b1-4)]GlcNAc
Outline: as §1

Fuc(a1-4)GlcNAc = target: Fuc(a1-4)GlcNAc
Outline: as §1

Fuc(b1-3)GlcNAc = target: Fuc(b1-3)GlcNAc
Outline: as §1

Gal(a1-2)Gal = target: Gal(a1-2)Gal
Outline: as §1

Gal(a1-3)Gal = target: Gal(a1-3)Gal
Outline: as §1

Gal(a1-3)Gal(b1-3)GlcNAc = target: Gal(a1-3)Gal(b1-3)GlcNAc
Outline: as §1

[12] = target: Gal(a1-3)Gal(b1-3)GlcNAc(b1-2)Man(a1-3)[Gal(a1-3)Gal(b1-3)GlcNAc(b1-2)Man(a1-6)]Man(b1-4)GlcNAc(b1-4)GlcNAc
Outline: as §1

[13] = target: Gal(a1-3)Gal(b1-3)GlcNAc(b1-3)GalNAc
Outline: as §1

[14] = target: Gal(a1-3)Gal(b1-3)GlcNAc(b1-6)GalNAc
Outline: as §1

[15] = target: Gal(a1-3)Gal(b1-3)[Fuc(a1-4)]GlcNAc(b1-2)Man(a1-3)[Gal(a1-3)Gal(b1-3)[Fuc(a1-4)]GlcNAc(b1-2)Man(a1-6)]Man(b1-4)GlcNAc(b1-4)GlcNAc
Outline: as §1

Gal(a1-3)Gal(b1-4)Glc = target: Gal(a1-3)Gal(b1-4)Glc
Outline: as §1

Gal(a1-3)Gal(b1-4)GlcNAc = target: Gal(a1-3)Gal(b1-4)GlcNAc
Outline: as §1

[16] = target: Gal(a1-3)Gal(b1-4)GlcNAc(b1-3)GalNAc
Outline: as §1

[17] = target: Gal(a1-3)Gal(b1-4)GlcNAc(b1-6)GalNAc
Outline: as §1

[18] = target: Gal(a1-3)Gal(b1-4)[Fuc(a1-3)]GlcNAc
Outline: as §1

[19] = target: Gal(a1-3)Gal(b1-4)[Fuc(a1-3)]GlcNAc(b1-2)Man(a1-3)[Gal(a1-3)Gal(b1-4)[Fuc(a1-3)]GlcNAc(b1-2)Man(a1-6)]Man(b1-4)GlcNAc(b1-4)GlcNAc
Outline: as §1

Gal(a1-3)GalNAc = target: Gal(a1-3)GalNAc
Outline: as §1

[20] = target: Gal(a1-3)[Gal(a1-4)]Gal(b1-4)GlcNAc
Outline: as §1

[21] = target: Gal(a1-4)Gal(b1-3)GlcNAc(b1-2)Man(a1-3)[Gal(a1-4)Gal(b1-3)GlcNAc(b1-2)Man(a1-6)]Man(b1-4)GlcNAc(b1-4)GlcNAc
Outline: as §1

Gal(a1-4)Gal(b1-4)Glc = target: Gal(a1-4)Gal(b1-4)Glc
Outline: as §1

Gal(a1-4)Gal(b1-4)GlcNAc = target: Gal(a1-4)Gal(b1-4)GlcNAc
Outline: as §1

[22] = target: Gal(a1-4)Gal(b1-4)GlcNAc(b1-2)Man(a1-3)[Gal(a1-4)Gal(b1-4)GlcNAc(b1-2)Man(a1-6)]Man(b1-4)GlcNAc(b1-4)GlcNAc
Outline: as §1

[23] = target: Gal(a1-4)Gal(b1-4)GlcNAc(b1-3)Gal(b1-4)Glc
Outline: as §1

Gal(a1-4)GlcNAc = target: Gal(a1-4)GlcNAc
Outline: as §1

Gal(a1-6)Glc = target: Gal(a1-6)Glc
Outline: as §1

Gal(b1-2)Gal = target: Gal(b1-2)Gal
Outline: as §1

Gal(b1-3)Gal = target: Gal(b1-3)Gal
Outline: as §1

B1: ArathEULS3 (Arabidopsis thaliana), Q945P1 (protein)
chain: MEHHHQHHRHHQRDDGEDDRQSFGVPPPHVDAPPQPHGLYQSQPHFDPYAPTPQAPAPYRSETQFEPHAPPPYRSEPYFETPAPPPSFGHVSHVGHQSPNESYPPEHHRYGGYQQPSNSLLESHGDHSGVTHVAHHSSNQPQSSSGVYHKPDENRLPDNLAGLAGRATVKVYSKAEPNYNLTIRDGKVILAPADPSDEAQHWYKDEKYSTKVKDADGHPCFALVNKATGEAMKHSVGATHPVHLIRYVPDKLDESVLWTESKDFGDGYRTIRMVNNTRLNVDAYHGDSKSGGVRDGTTIVLWDWNKGDNQLWKIFPFILEQKLISEEDLNSAVDHHHHHH
- glycan array binding signal (z-score) [1]: -0.194
- glycan array binding signal (z-score) [2]: 1.15
- glycan array binding signal (z-score) [3]: 0.939
- glycan array binding signal (z-score) [4]: -0.174
- glycan array binding signal (z-score) [5]: 0.65
- glycan array binding signal (z-score) [6]: 0.041
- glycan array binding signal (z-score) [7]: -0.26
- glycan array binding signal (z-score) [8]: 0.59
- glycan array binding signal (z-score) [9]: -0.04
- glycan array binding signal (z-score) [10]: -0.175
- glycan array binding signal (z-score) [11]: 0.524
- glycan array binding signal (z-score) (Fuc(a1-4)GlcNAc): -0.064
- glycan array binding signal (z-score) (Fuc(b1-3)GlcNAc): -0.231
- glycan array binding signal (z-score) (Gal(a1-2)Gal): -0.248
- glycan array binding signal (z-score) (Gal(a1-3)Gal): -0.332
- glycan array binding signal (z-score) (Gal(a1-3)Gal(b1-3)GlcNAc): -0.312
- glycan array binding signal (z-score) [12]: 4.38
- glycan array binding signal (z-score) [13]: -0.252
- glycan array binding signal (z-score) [14]: -0.092
- glycan array binding signal (z-score) [15]: 0.898
- glycan array binding signal (z-score) (Gal(a1-3)Gal(b1-4)Glc): -0.335
- glycan array binding signal (z-score) (Gal(a1-3)Gal(b1-4)GlcNAc): -0.183
- glycan array binding signal (z-score) [16]: -0.382
- glycan array binding signal (z-score) [17]: -0.163
- glycan array binding signal (z-score) [18]: -0.236
- glycan array binding signal (z-score) [19]: 0.658
- glycan array binding signal (z-score) (Gal(a1-3)GalNAc): -0.22
- glycan array binding signal (z-score) [20]: -0.208
- glycan array binding signal (z-score) [21]: -0.203
- glycan array binding signal (z-score) (Gal(a1-4)Gal(b1-4)Glc): -0.332
- glycan array binding signal (z-score) (Gal(a1-4)Gal(b1-4)GlcNAc): -0.204
- glycan array binding signal (z-score) [22]: -0.17
- glycan array binding signal (z-score) [23]: -0.369
- glycan array binding signal (z-score) (Gal(a1-4)GlcNAc): -0.252
- glycan array binding signal (z-score) (Gal(a1-6)Glc): -0.342
- glycan array binding signal (z-score) (Gal(b1-2)Gal): -0.206
- glycan array binding signal (z-score) (Gal(b1-3)Gal): -0.272
